Experimental data reported in article PMC3521654, “The Nuclear Chaperone Nucleophosmin Escorts an Epstein-Barr Virus Nuclear Antigen to Establish Transcriptional Cascades for Latent Infection in Human B Cells” (PLoS Pathogens, 2012).

What was measured:
GST-E2 300–360 = molecular target: T1, GST-E2 300–360 (Epstein-Barr virus, UniProt P12978 300-360); experiment: pull-down; conditions: one partner purified
T1 construct: source: E. coli BL21 (DE3) pLys, purified (GST-sepharose)
T1 sequence: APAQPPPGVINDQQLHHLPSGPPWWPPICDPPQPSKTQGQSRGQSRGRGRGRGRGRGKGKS

[1] = molecular target: T2, EBNA2 from the transfected expression vector (pSG5-EBNA2, E2) (Epstein-Barr virus, UniProt P12978 1-487); experiment: cell-based or functional assay
T2 sequence (looked up): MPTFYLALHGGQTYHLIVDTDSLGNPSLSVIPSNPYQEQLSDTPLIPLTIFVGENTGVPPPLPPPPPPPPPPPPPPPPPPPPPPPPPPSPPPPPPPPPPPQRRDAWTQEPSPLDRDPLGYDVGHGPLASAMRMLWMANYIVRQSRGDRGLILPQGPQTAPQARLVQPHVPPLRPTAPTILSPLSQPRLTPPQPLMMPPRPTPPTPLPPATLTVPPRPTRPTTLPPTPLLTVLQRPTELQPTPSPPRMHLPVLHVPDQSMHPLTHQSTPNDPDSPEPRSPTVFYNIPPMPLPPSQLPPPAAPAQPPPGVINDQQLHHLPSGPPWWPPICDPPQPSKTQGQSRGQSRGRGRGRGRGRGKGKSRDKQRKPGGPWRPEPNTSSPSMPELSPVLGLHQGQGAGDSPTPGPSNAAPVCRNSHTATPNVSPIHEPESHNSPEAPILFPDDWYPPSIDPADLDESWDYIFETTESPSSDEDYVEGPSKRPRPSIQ

B1: flag-tagged NPM1 truncated deletion mutant C1 ([…]) (domain or fragment)
chain: not shown
notes: source: BJAB, transfected, in lysate
- percent of input pulled down (GST-E2 300–360): ~2%
- co-activation of EBNA2-dependent LMP1-Luc reporter activity in BJAB cells [1]: 2.5 fold
